Data as given in the supplement of paper PMC11417369.
± gives the standard deviation of the averaged measurements. This is one part of the list.

Tested on: PfAP2-I AP2 domain 3 (GST-tagged)
Assay: gcPBM binding intensity (ln(normalized median fluorescence intensity)); higher = stronger DNA binding
Method in brief: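 GST-tagged P. falciparum DNA-binding domains produced in E. coli were incubated for 1 h on an Agilent 4 × 180k array of primer-extended double-stranded 36-bp intergenic genomic probes with negative controls. Binding intensity is the highest Masliner-normalised natural-log median intensity across replicate spots of either probe orientation, with bound protein detected by Alexa488 anti-GST antibody at 488 nm.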

Row | Sequence | gcPBM binding intensity (ln)
1 | ATATTTAAATTTTGCACACGCATATGAAATTAGGAC [CACACA_site1035] | 9.19 ± 0.085
2 | AAAATAAATAAATATACACACCATATTTATATTTTT [CACACA_site7361] | 7.75 ± 0.62
3 | TAAATGAATTTTACTATACACACGTATACATTTGTA [CACACA_site1210] | 7.42 ± 0.64
4 | TAATTTGTTATTTATTGTACAAACATTATATGTTAA [XGTACX_site6637] | 7.54 ± 0.49
5 | TACTACACACATTCATGTACTTGATAAATTAATGAT [XGTACX_site6444] | 7.74 ± 0.42
6 | ATAACTAATATGAAATGTACCCATCAAAGTGTGCAT [XGTACX_site4463] | 7.74 ± 0.61
7 | AAAATTAAAATACGTACACACCTTATCTTTTTGGCT [CACACA_site4311] | 8.21 ± 0.19
8 | ATATTATAAATATAATGTACGTTTTAATTTCATGTT [XGTACX_site3557] | 7.66 ± 0.45
9 | ATATATAATTATTGAAGTACTTGTTCATAAAATGGT [XGTACX_site5656] | 7.95 ± 0.45
10 | AAAATAAAATGAAAACGTACATGATAAATTTTAATT [XGTACX_site4199] | 7.59 ± 0.67
11 | TATATGAGCATAAAGACACACAAATAAAACCAAACA [CACACA_site3856] | 7.99 ± 0.52
12 | TTTTGTTGAAAAAAAAAAAAAAAATTAAATTAAATT [GTGCAC_negctrl_site636] | 7.4 ± 0.55
13 | CATAGACACGAACATACACACGGACATACATACGGA [CACACA_site8101] | 7.88 ± 0.67
14 | GTAACAAATTAATAGTGTACATATTTTAAAAAAATA [XGTACX_site7150] | 7.79 ± 0.26
15 | GTGTTAAATTTTTGAACATGCAAGTTTTATTATTGA [TGCATGCA_site478] | 7.58 ± 0.56
16 | AATGCAAAGGTGAAAGAACACACAAAAAAAAAAAAA [CACACA_site9333] | 7.88 ± 0.88
17 | GAAACATACATTTTTTGTCCGTAAGTATTATAATAA [XGTACX_site3273] | 7.78 ± 0.42
18 | ATACATCAAGGACACACACACACACCCACACCCACA [CACACA_site8013] | 8.19 ± 0.34
19 | CACATAAAAATTGTGTTGCACTTTTATTCTTATATC | 8.82 ± 0.16

Row | Sequence | gcPBM binding intensity (ln)
20 | CTATGAATAGGAAAAAGTACTAAACCTTTATATATA [XGTACX_site5022] | 7.55 ± 0.42
21 | ATTTTGCCTGACCCATGTACATATTATTTTTTGCAT [XGTACX_site2258] | 8.46 ± 0.86
22 | AACTTACTTGGACATACACACATATATATATATATA [CACACA_site2978] | 9.48 ± 0.52
23 | TTTATATATTTTAGGTGTACATAAATTTTTATATAT [XGTACX_site5597] | 7.97 ± 0.19
24 | TCAAATATTCATAAATGTACATTTATTTTTCTCCTT [XGTACX_site5827] | 7.75 ± 0.74
25 | TAACTTAATATTAATGCACACAATTTATATATATAT [CACACA_site3903] | 11.3 ± 0.38
26 | AGTAGAATATCCCCTACACACCCAAATAATTTACAA [CACACA_site8339] | 8.22 ± 0.67
27 | TGTAGAAGAACCCATGCATGCAGTATGAAAAAAAAA [TGCATGCA_site907] | 10.1 ± 0.54
28 | AAAAAAAGAAAAAAACGTACATGAAAATTTTTTGTT [XGTACX_site5135] | 7.91 ± 0.71
29 | CTATATAAAAAAATTGCACACATAAATATATACATA [CACACA_site8325] | 8.35 ± 0.11
30 | ATAAATCCCAAAACCTTGCAAGACAACGTTTGATCA [CACACA_negctrl_site1327] | 7.66 ± 0.73
31 | TTCTAAAATTATATAGTGCAATTATTTTATTTTTCT | 9.86 ± 0.014
32 | AAAAAAATAAAACACATACATATATGTATATATATA [GTGCAC_negctrl_site390] | 8.72 ± 0.16
33 | TAAATATATATATAAGTGCATTATATATATATATAA | 11.2 ± 0.57
34 | ATTAATAATTATTATGGTACACATGTAACTACTCTC [XGTACX_site198] | 7.92 ± 0.32
35 | ATCTCTTACATATTCACACACATATAAATAACTACA [CACACA_site6816] | 8.39 ± 0.49
36 | ATATGATAGTTTATATGTACATAAATAAATACATAC [XGTACX_site2917] | 7.92 ± 0.33
37 | AAAGAAAAAAAATAATGTACATATGTATTTGAGAAA [XGTACX_site3571] | 7.88 ± 0.54
38 | AAAAATATGAAAGTAACTAAGTTGTTATTGATAACA [CACACA_negctrl_site1608] | 7.45 ± 0.72

Row | Sequence | gcPBM binding intensity (ln)
39 | ACGTTAGGCTTATTTGCACACTTGTATTATAATTTT [CACACA_site1317] | 9.96 ± 0.31
40 | ATATTATCACAAGGTGGTACACAAAAAAAAAAAAAA [XGTACX_site8224] | 8.625 ± 0.049
41 | TACTTTCACATTAAATGTACGTATAGTTTCATTCTT [XGTACX_site8528] | 8.02 ± 0.3
42 | ATATTAAAAATATATACACACATATATATAAATATA [CACACA_site2257] | 7.51 ± 0.37
43 | ATAAATATGGAGCACACACACATAAACATACAGATA [CACACA_site4395] | 8.34 ± 0.33
44 | TATATTTAAGTACATAAATAAGCCCATTTACATACA [CACACA_negctrl_site1224] | 7.84 ± 0.14
45 | TTTGGAGAATTCATAGTGCATTTATTTATTGTTAAT | 10.5 ± 0.47
46 | TAAGTGATCGCATAATGTACATATTATTTATTATTT [XGTACX_site3061] | 7.64 ± 0.28
47 | CATACATACATACATACACACATATATAAATATATG [CACACA_site7028] | 8.94 ± 0.57
48 | GGAAGGATATAACATACACACACACCCATATATATA [CACACA_site9376] | 8.46 ± 0.73
49 | TACATTTAAAAAAAAACACACATATTTATATTTATA [CACACA_site7236] | 7.28 ± 0.36
50 | TTTCCTGGTCAAGGGGTTACGGTTACGTCCTCTTGC [CACACA_negctrl_site856] | 7.38 ± 0.81
51 | CATATACATAGACACACACACACATAAATAAATATA [CACACA_site6749] | 7.88 ± 0.26
52 | TTATGTATTTATTTATGTACTAATTGTATGCATATT [XGTACX_site6436] | 7.82 ± 0.53
53 | ATACTTTATAAATACTAAAGTGTATTTTGTAATATA [CACACA_negctrl_site1710] | 7.58 ± 0.49
54 | ATTTGTATATATAATTGTACGCATATTCTATACGAT [XGTACX_site7367] | 7.96 ± 0.12
55 | TGTTCAGTATGGCACACACACAACAAAATAAAAAAA [CACACA_site4368] | 8.71 ± 0.16
56 | GGTTTACCCTATAAATGTACTCATAAATTATATATA [XGTACX_site5771] | 7.75 ± 0.43
57 | ATACGAAATAGAAACACACATACAATAAATAAATAT [CACACA_site2017] | 7.8 ± 0.69
